Several values for one entry are separate records, joined by “and”; a condition that tells them apart may be missing. Identical values can stand only once. Further values from the same series stand in other lists. Inconclusive results and toxic doses are left out.
System: P388 leukemia ip, CD2F1 mice, survival T/C
Experiment: NCI In Vivo Anticancer Drug Screen. Data for tumor model P388 Leukemia (intraperitoneal) in CD2F1 (CDF1) mice
Conditions: endpoint: median survival time, higher = longer survival
Description: The antitumor activity of compounds was measured in mice bearing transplantable tumors. Survival or tumor size were measured and the results are expressed as the measurement made in the treated group (T) divided by the measurement made in the vehicle treated control group (C). The tumor model used in this assay is P388 Leukemia (intraperitoneal) in CD2F1 (CDF1) mice

## ClCC[N+]12CC[N+](CCCl)(CC1)C2
dose: 0.78 mg/kg/injection, schedule: Q01DX009 (ip), vehicle: water
  T/C: 150 % of control and 157 % of control
dose: 1.56 mg/kg/injection, schedule: Q01DX009 (ip), vehicle: water
  T/C: 160 % of control and 163 % of control
dose: 3.12 mg/kg/injection, schedule: Q01DX009 (ip), vehicle: water
  T/C: 193 % of control
dose: 3.13 mg/kg/injection, schedule: Q01DX009 (ip), vehicle: water
  T/C: 118 % of control
dose: 6.25 mg/kg/injection, schedule: Q01DX009 (ip), vehicle: saline
  T/C: 100 % of control
dose: 10.0 mg/kg/injection, schedule: Q01DX005 (ip), vehicle: water
  T/C: 90 % of control
dose: 50.0 mg/kg/injection, schedule: Q01DX009 (ip), vehicle: distilled water + Tween-80
  T/C: 169 % of control
dose: 50.0 mg/kg/injection, schedule: Q01DX009 (ip), vehicle: saline
  T/C: 109 % of control
dose: 50.0 mg/kg/injection, schedule: Q01DX009 (ip), vehicle: water
  T/C: 169 % of control [middle of 8 runs]
dose: 60.0 mg/kg/injection, schedule: Q01DX009 (ip), vehicle: water
  T/C: 187 % of control
dose: 66.0 mg/kg/injection, schedule: Q01DX009 (ip), vehicle: water
  T/C: 169 % of control
dose: 100.0 mg/kg/injection, schedule: Q01DX009 (ip), vehicle: distilled water + Tween-80
  T/C: 99 % of control
dose: 100.0 mg/kg/injection, schedule: Q01DX009 (ip), vehicle: saline with Tween-80
  T/C: 179 % of control
dose: 100.0 mg/kg/injection, schedule: Q01DX009 (ip), vehicle: saline
  T/C: 216 % of control and 116 % of control
dose: 100.0 mg/kg/injection, schedule: Q01DX009 (ip), vehicle: water
  T/C: 185 % of control [middle of 9 runs]
dose: 106.68 mg/kg/injection, schedule: Q01DX009 (ip), vehicle: clinical formulation
  T/C: 195 % of control
dose: 106.68 mg/kg/injection, schedule: Q01DX009 (ip), vehicle: water
  T/C: 186 % of control
dose: 120.0 mg/kg/injection, schedule: Q01DX005 (ip), vehicle: water
  T/C: 219 % of control
dose: 120.0 mg/kg/injection, schedule: Q01DX009 (ip), vehicle: water
  T/C: 194 % of control and 214 % of control
dose: 150.0 mg/kg/injection, schedule: Q01DX009 (ip), vehicle: water
  T/C: 114 % of control
dose: 160.0 mg/kg/injection, schedule: Q01DX009 (ip), vehicle: water
  T/C: 86 % of control
dose: 200.0 mg/kg/injection, schedule: Q01DX006 (ip), vehicle: water
  T/C: 192 % of control
dose: 200.0 mg/kg/injection, schedule: Q01DX009 (ip), vehicle: saline
  T/C: 124 % of control
dose: 240.0 mg/kg/injection, schedule: Q01DX005 (oral), vehicle: water
  T/C: 91 % of control
dose: 240.0 mg/kg/injection, schedule: Q01DX009 (oral), vehicle: water
  T/C: 95 % of control
